From PubChem BioAssay AID488969 (Vanderbilt High Throughput Screening Facility, 2010)
In all, about 110,000 compounds were measured (“z-score”: median about -0.1, highest 2% from about 2 on). The list shows a part of the results. The source made the active and inactive calls.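 The calls were made as follows: active = z-score in the third read window above 3 or below -3; inactive = the rest.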

What follows are compounds tested against Metabotropic glutamate receptor 8 (Rattus norvegicus) (UniProt P70579) (assay: mGluR8 Gi/Go-coupled signaling modulation – cell-based, rat, thallium flux, HTS, primary screen (AID 488969)). Details: HEK293 rat mGluR8, GIRK (G protein-gated inwardly rectifying potassium channel) thallium flux, FluoZin2; at 10 µM; stronger effect = higher value; submaximal glutamate (EC20) added with thallium.
Sequence of UniProt P70579 (P70579 whole entry, looked up): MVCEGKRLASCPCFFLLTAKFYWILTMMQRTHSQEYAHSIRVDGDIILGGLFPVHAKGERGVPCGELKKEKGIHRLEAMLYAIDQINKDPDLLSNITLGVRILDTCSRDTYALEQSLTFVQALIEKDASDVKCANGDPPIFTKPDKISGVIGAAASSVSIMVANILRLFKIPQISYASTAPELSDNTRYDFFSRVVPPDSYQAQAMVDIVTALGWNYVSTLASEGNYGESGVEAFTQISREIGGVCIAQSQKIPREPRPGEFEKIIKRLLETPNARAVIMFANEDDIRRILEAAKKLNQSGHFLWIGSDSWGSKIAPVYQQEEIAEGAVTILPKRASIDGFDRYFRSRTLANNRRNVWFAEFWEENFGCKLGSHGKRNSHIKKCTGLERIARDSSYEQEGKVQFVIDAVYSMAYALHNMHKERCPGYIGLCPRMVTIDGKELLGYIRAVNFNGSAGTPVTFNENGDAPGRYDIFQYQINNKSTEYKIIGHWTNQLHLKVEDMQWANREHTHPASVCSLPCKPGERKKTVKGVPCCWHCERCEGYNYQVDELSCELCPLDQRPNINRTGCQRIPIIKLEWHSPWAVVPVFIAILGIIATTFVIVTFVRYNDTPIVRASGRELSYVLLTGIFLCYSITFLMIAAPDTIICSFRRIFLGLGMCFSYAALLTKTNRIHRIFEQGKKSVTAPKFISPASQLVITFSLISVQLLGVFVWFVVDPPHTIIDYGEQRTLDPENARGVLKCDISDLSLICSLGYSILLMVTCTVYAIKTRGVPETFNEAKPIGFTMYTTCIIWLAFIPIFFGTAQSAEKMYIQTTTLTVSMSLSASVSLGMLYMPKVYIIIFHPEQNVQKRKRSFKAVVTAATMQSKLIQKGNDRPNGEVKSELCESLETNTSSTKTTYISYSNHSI

SMILES	z-score
Cc1[nH]n(-c2ccccc2)c(=S)c1C=Nc1cccc([N+](=O)[O-])c1	-0.78
O=C(O)c1ccc2c(c1)CC(c1ccccc1)OC2=O (stereo not given)	-0.453
CC(C)OC(=O)c1cn(-c2ccccc2)nc1-c1ccco1	-0.552
COc1ccc(-n2cnnc2SCC(=O)Nc2cccc(S(=O)(=O)N3CCCCC3)c2)cc1	-0.523
Cc1cccc(NC(=O)CO/N=C/c2ccc3c(c2)OCO3)c1	-0.175
Cc1cc(=O)oc2cc(OCC(=O)N3c4ccccc4CC3C)ccc12 (stereo not given)	-0.325
Cc1ccc(-c2cc(C(=O)Nc3cc(C)on3)c3ccccc3n2)cc1	-0.321
O=C(COc1ccccc1)NC(=S)Nc1ccc2c(c1)Cc1ccccc1-2	active: 6.86
N=C(N)SCc1nc2ccccc2c(=O)n1-c1ccccc1Cl	-0.219
Cc1[nH]n(-c2ncc(-c3ccccc3)s2)c(=O)c1C(c1ccc(Cl)cc1)C(C#N)C#N (stereo not given)	0.15
COc1ccc(OC)c(Nc2nc(N)nc(CSc3nnc(-c4ccncc4)o3)n2)c1	-0.218
CCCCN(CCCNC(=O)c1ccc2nc(N3CCOCC3)sc2c1)Cc1ccccc1	-0.0195
Cc1nc2ccccc2c(=O)n1NC(=O)/C=C/c1ccccc1	0.0247
CCn1c(C)[n+](CCCS(=O)(=O)[O-])c2cc(Cl)c(Cl)cc21	-0.165
CCCNc1nc2c(c(=O)n(C)c(=O)n2C)n1Cc1ccc(F)cc1	-0.637
O=C(COc1ccc(N2CC(C(=O)O)CC2=O)cc1)Nc1cccc(C(F)(F)F)c1 (stereo not given)	0.0536
CC(C)(C)C(=O)N(CCN(C(=O)C(C)(C)C)c1ccccc1)c1ccccc1	-0.275
O=C(CCc1nc(-c2ccccc2)no1)NCCc1ccccc1	0.0357
CC(=O)Nc1ccc(S(=O)(=O)NC(CC(=O)NCCc2ccccc2)C(C)C)cc1 (stereo not given)	-0.221
CC(=O)Nc1ccc(S(=O)(=O)N2CCN(CCCOc3ccccc3Cl)CC2)cc1	-0.242
CN(CC(=O)Nc1nc2ccccc2s1)S(=O)(=O)c1ccc(Br)cc1	0.828
COc1ccc(N(CC(=O)N/N=C/c2cc3ccc(OC)cc3nc2Cl)S(=O)(=O)c2ccccc2)cc1	-0.119
CCC(CC)NC(=O)/C=C/c1ccccc1Cl	-0.178
COc1ccc(C(=O)O/N=C(\N)Cc2ccc(Cl)cc2Cl)cc1OC	-0.448
Cc1[nH][nH]c(=O)c1C(c1ccc(-c2ccc(Cl)c(Cl)c2)o1)c1c(C)[nH][nH]c1=O	-0.342
Cc1ccc2c(c1)nnn2C1CCN(CC(=O)Nc2ccccc2N2CCOCC2)CC1	-1.3
CSc1nc2ccc3nc(NC(=O)c4ccc(Cl)s4)sc3c2s1	0.273

SMILES	z-score
COc1ccc(/C=C/C(=O)NC(=S)NNC(=O)c2cccnc2)cc1OC	-0.273
Cc1ccc(OCC(=O)Nc2nnn(C)n2)c(C)c1	0.068
N#Cc1cnc(SCC(=O)NNC(=O)COc2cccc3ccccc23)nc1N	0.104
CCC(=O)NC(Nc1cccc(C)n1)(C(F)(F)F)C(F)(F)F	0.107
CCn1c(-c2ccc(F)cc2)n[nH]c1=S	-0.0596
Cc1cccc(-n2nnnc2SCC(=O)c2cc(C)n(Cc3ccco3)c2C)c1	0.103
O=C1CC(N2CCC(c3nc4ccccc4s3)CC2)C(=O)N1 (stereo not given)	-0.0191
COc1ccc(N2C(C)=CS/C2=C(/C#N)c2nnc(N3CCOCC3)n2-c2ccccc2)cc1	-0.189
CSC1=NC2C(N1)N(C)C(=O)N2C (stereo not given)	0.487
COc1ccc(N(C(C)C(=O)NC2CCCCCC2)S(C)(=O)=O)cc1 (stereo not given)	0.00612
O=C1CC(c2ccc(S(=O)(=O)Nc3cc(C(F)(F)F)cc(C(F)(F)F)c3)cc2)CN1 (stereo not given)	0.112
Cc1ccc(C(=O)O/N=C(\N)c2ccc(Br)cc2)cc1C	0.201
COc1cc(-c2cc(C(=O)O)c3c(OC)c(OC)c(OC)cc3n2)ccc1O	0.239
CCOC(=O)C(=CNCC(=O)OC)C(=O)OCC	0.0437
Cc1cc(Nc2ncc(Cl)cc2Cl)n(-c2ccccc2C)n1	-0.174
O=C(c1c[nH]c2ccc(S(=O)(=O)N3CCC4(CC3)OCCO4)cc2c1=O)N1CCOCC1	-0.224
CCCn1c(C)cc(/C=C(\C#N)C(=O)OCC(=O)NC(=O)NCC)c1C	-0.591
Cc1nc(SCC(=O)Nc2c(C)nn(C)c2C)c2cnn(-c3ccccc3)c2n1	-0.799
Cc1cc(C(=O)N/N=C2\CCCC(=O)C2)c(C)n1-c1ccccc1	0.227
O=C(c1cnn2c(C(F)(F)F)cc(-c3ccccc3)nc12)N1CCCc2ccccc21	-0.322
COC(=O)c1sc(NC(=O)c2oc3ccccc3c2C)nc1C	0.295
COC(=O)C(CCSC)NC(=O)CNS(=O)(=O)c1ccc(Br)cc1 (stereo not given)	-0.207
CCCCCCOc1ccc(N2C(=O)CC(N3CCN(C(=O)c4ccco4)CC3)C2=O)cc1 (stereo not given)	0.102
CC(C)(C)NC(=O)CSc1nc2ccc(NC(=O)CSc3nnnn3Cc3ccccc3)cc2s1	-0.227
O=C(CSc1ccc(-c2ccco2)nn1)c1cccc([N+](=O)[O-])c1	-0.24
O=C(CC1SC(=Nc2ccccc2)N(CCc2c[nH]c3ccccc23)C1=O)Nc1ccccc1F (stereo not given)	-0.0173
Cc1ccc(-c2noc(CSc3nnc(-c4ccncc4)n3-c3ccc(F)cc3)n2)cc1	-0.168

SMILES	z-score
O=C(CSc1nc2ccccc2c(=O)n1-c1cccc(C(F)(F)F)c1)NC1CC1	-0.265
COC(=O)C1=C(C)Nc2nnnn2C1c1ccco1 (stereo not given)	-0.268
O=C(CCN1C(=O)S/C(=C\c2ccccc2)C1=O)Nc1ccc(S(=O)(=O)Nc2nccs2)cc1	0.0301
O=c1c(Cc2ccc(F)cc2)c(O)ccn1C1CCCCC1	-0.0593
O=C(c1ccc(F)cc1)c1cn[nH]c1-c1ccccc1O	0.0354
CC(=O)c1ccc(Cc2cnc(N)s2)cc1	0.199
O=C(CCOc1ccccc1)NCC(c1ccco1)N1CCCCC1 (stereo not given)	0.398
CCOC(=O)N1CCN(Cc2nc3c(c(=O)n(C)c(=O)n3C)n2CCC(C)C)CC1	-0.493
COc1cccc(OC(C)c2ccnc3nc(/N=C/N(C)C)nn23)c1 (stereo not given)	0.0638
COC(=O)CN(C(=S)Nc1ccc(Cl)cc1)C1CC(=O)N(c2ccc(OC)cc2)C1=O (stereo not given)	-0.282
Cc1cc(C)c2[nH]c(=O)c(C(c3nnnn3Cc3ccc4c(c3)OCO4)N3CCCC3)cc2c1 (stereo not given)	-0.213
CC(NC(c1ccccc1)c1ccccc1)C(=O)N1CCCc2ccccc21 (stereo not given)	0.067
CCCCOC(=O)Cn1c(=N)n(CCN2CCOCC2)c2ccccc21	1.91
Cn1nc(-c2ccc(C(=O)N3CCN(c4ccccc4)CC3)cc2)c2ccccc2c1=O	0.0868
COc1ccccc1-c1nnc(SCC(=O)NC2CCCCC2)o1	-0.234
O=c1[nH][nH]c(C(F)(F)F)c1C=NCc1ccc(Cl)cc1	0.51
COC(=O)C1CCN(C(=O)Cc2ccc(C)cc2)CC1	0.0557
Cc1oc(CC(C)C)c(CN)c1C(=O)O	0.0286
Cc1ccc(NC(=O)Cn2nc([N+](=O)[O-])c(Br)c2C)cc1C	0.387
O=C(c1cc2c(s1)CCC2)N1C(=O)c2ccccc2S1(=O)=O	0.704
CCCCN(C(=O)CSc1cc(C)c2ccc(OC)cc2n1)c1c(N)n(Cc2ccccc2)c(=O)[nH]c1=O	0.118
Cc1cccc2cc(C(c3nnnn3Cc3ccccc3)N3CCCc4ccccc43)c(=O)[nH]c12 (stereo not given)	0.0552
CCN1CCN(C(=O)C2CCN(Cc3nc(-c4cccc(Cl)c4)oc3C)CC2)CC1	-0.235
COc1ccc(NC(=O)COc2ccc(CNCCCN3CCOCC3)cc2OC)cc1	-0.551
O=C(/C=C/c1ccccc1[N+](=O)[O-])NCC1CCCO1 (stereo not given)	-0.326
COC(=O)C1=C(C)NC(=O)C1(Nc1ccc(Cl)cn1)C(F)(F)F (stereo not given)	-0.151
CC1CC(C)CN(CC(=O)Nc2ccc(S(N)(=O)=O)cc2)C1 (stereo not given)	0.422

SMILES	z-score
COc1cccc(-c2nnc3sc(-c4ccc(C)cc4)nn23)c1	-0.138
Cc1ccc(C(=O)N2c3ccccc3N(Cc3ccccc3)C(=O)C2(C)C)cc1	0.683
CCCc1ccc(OCc2ccc(C(=O)N/N=C/c3cccc([N+](=O)[O-])c3)o2)c(OC)c1	-0.212
O=C(Nc1nc2ccccc2n1CCOc1ccc(Cl)cc1)c1ccco1	-0.224
COc1ccc(/C=N/Nc2ncnc(Cl)c2N)cc1OC	0.241
CCC(=O)N1CCN(CCN=CC2=C(O)CC(c3cccs3)CC2=O)CC1 (stereo not given)	-0.433
Cc1cc(C)c(C(N)=O)c(NCCc2ccccc2)n1	0.176
COc1ccc(N(CC(=O)N/N=C/c2ccc(OC3CSC3)cc2)S(=O)(=O)c2ccccc2)cc1	-0.619
CCC(C)NC(=O)COc1ccccc1[N+](=O)[O-] (stereo not given)	-0.0414
CCOc1cccc2cc(C(=O)Nc3ccccc3-c3ccccc3)c(=O)oc12	-0.0386
O=C(NCc1ccccc1)c1cccc(S(=O)(=O)NCc2ccccc2)c1	-0.241
COC(=O)C1=C(C)N(c2cc(Cl)cc(Cl)c2)C(=O)C1	0.0831
O=C1CCCC2=C1C1(CCCC1)N=C(Nc1nc3ccccc3s1)N2	-0.211
Cn1c(N2CCN(C(=O)Nc3ccc(F)cc3)CC2)nc2ccccc21	0.346
COc1ccc(CCNC(=O)CSc2nnc(-c3ccccc3)c3ccccc23)cc1OC	-0.982
Cc1c(C(=O)NCc2ccc(F)cc2)c(-c2ccccc2)nn1-c1ccccc1	-0.0527
O=C1CC(SC(=NCc2ccc3c(c2)OCO3)Nc2ccccc2)C(=O)N1c1ccccc1 (stereo not given)	-0.0575
COc1ccc(CNC(=S)Nc2cccc(C)c2)cc1	0.00773
COc1ccc(NC(=O)COC(=O)Cn2c(C)nc3ccccc32)cc1OC	0.144
COc1nc(N)c(S(=O)(=O)c2ccccc2)cc1C#N	-0.113
Cc1nn(Cc2ccc(F)cc2)c2sc(C(=O)Nc3nccs3)cc12	-0.146
C=CCNc1cc(C(F)(F)F)nc(-c2ccccn2)n1	0.279
CCC(=O)OCCNc1cc(Sc2nccn2C)c2nonc2c1[N+](=O)[O-]	-0.991
O=C(Cn1cnc2ccccc2c1=O)N1CCOCC1	-0.245
